This passage reports binding results from paper PMC4945878.

The chains behind the UniProt entries cited, without tags or fusion partners. Where a name states a change or a piece, a line headed by the entry shows the natural chain unless it says otherwise. A line that says so, or that is headed by a name, gives the form on record, which may keep a tag or linker. Residues count along the entry.
UniProt Q9HAW4: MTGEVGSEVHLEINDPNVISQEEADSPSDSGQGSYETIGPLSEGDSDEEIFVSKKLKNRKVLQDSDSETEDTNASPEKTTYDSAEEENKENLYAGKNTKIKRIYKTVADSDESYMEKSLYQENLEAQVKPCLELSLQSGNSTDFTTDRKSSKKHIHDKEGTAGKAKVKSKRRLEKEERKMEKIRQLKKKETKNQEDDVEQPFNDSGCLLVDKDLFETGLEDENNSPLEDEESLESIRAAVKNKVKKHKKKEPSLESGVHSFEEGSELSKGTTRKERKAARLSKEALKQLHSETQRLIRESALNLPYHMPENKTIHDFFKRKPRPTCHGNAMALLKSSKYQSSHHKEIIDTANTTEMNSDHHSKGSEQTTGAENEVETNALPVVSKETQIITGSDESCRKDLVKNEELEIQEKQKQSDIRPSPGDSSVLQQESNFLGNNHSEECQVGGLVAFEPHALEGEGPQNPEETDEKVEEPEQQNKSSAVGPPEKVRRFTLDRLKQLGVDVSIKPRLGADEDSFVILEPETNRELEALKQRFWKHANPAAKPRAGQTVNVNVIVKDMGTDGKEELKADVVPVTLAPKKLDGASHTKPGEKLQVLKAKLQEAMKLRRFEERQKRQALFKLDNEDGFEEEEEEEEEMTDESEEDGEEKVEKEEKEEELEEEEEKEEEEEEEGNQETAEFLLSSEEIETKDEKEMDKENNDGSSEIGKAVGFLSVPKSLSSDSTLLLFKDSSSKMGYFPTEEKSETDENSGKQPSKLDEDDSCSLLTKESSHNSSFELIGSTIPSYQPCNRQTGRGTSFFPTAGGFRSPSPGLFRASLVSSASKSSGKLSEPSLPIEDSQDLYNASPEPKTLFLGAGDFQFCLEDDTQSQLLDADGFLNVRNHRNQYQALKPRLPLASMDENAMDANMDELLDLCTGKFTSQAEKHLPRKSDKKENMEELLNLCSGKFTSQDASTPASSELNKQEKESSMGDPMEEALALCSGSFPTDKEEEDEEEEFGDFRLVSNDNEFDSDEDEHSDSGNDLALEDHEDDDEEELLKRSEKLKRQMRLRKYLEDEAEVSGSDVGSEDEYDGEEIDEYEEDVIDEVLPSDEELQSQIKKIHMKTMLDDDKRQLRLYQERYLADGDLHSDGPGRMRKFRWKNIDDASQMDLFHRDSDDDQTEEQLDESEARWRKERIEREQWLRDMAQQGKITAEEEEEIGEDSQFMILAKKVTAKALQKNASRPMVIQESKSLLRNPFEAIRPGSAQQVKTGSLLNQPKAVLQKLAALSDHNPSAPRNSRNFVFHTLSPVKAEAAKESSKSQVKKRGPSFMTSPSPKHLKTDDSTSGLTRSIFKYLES
Claspin #26 (aa1-985), 3xFlag: residues 1-985 of Q9HAW4
Claspin #25 (aa1-896), 3xFlag: residues 1-896 of Q9HAW4
Claspin #2 (aa1-350), 3xFlag: residues 1-350 of Q9HAW4
Claspin #13 (aa897-1,209), 3xFlag: residues 897-1209 of Q9HAW4
Claspin #27 (aa897-1,100), 3xFlag: residues 897-1100 of Q9HAW4
Claspin PIP mutant, full length, 3xFlag (Q9HAW4, form named): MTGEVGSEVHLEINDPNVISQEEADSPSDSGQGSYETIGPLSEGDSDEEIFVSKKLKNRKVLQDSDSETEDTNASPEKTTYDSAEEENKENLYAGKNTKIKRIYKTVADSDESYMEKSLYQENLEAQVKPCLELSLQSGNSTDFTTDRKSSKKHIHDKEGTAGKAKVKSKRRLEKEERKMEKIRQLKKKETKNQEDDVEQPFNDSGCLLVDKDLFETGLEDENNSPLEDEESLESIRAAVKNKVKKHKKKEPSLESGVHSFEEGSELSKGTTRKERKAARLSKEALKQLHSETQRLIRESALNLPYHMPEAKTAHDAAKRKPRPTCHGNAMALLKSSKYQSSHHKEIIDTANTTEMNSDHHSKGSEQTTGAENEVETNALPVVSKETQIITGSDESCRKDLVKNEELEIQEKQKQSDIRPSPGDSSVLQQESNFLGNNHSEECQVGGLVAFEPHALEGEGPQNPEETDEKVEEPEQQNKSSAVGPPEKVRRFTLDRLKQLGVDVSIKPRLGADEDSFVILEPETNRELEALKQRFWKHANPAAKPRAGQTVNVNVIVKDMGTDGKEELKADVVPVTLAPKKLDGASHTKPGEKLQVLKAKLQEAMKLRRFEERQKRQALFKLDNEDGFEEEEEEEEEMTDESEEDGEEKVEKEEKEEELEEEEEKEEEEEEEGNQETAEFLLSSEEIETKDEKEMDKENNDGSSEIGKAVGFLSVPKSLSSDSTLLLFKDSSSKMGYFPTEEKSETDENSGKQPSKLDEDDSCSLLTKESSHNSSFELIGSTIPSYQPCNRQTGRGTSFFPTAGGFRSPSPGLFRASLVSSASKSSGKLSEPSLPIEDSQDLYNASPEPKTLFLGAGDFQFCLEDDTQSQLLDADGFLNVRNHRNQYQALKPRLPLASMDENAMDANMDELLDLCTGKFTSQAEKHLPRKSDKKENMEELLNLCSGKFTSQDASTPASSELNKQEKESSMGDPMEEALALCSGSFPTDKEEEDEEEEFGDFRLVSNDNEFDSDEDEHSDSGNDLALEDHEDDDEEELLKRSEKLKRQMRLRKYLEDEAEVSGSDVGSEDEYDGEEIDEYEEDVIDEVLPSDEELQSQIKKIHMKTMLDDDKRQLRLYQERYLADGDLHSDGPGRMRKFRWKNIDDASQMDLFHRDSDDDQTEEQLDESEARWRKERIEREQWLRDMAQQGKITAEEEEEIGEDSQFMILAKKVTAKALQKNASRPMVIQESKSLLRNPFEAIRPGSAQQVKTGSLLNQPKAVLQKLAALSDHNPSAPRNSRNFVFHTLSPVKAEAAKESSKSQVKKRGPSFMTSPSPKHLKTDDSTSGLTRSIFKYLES
Claspin #2 (aa1-350) PIP mutant, 3xFlag (Q9HAW4, form named): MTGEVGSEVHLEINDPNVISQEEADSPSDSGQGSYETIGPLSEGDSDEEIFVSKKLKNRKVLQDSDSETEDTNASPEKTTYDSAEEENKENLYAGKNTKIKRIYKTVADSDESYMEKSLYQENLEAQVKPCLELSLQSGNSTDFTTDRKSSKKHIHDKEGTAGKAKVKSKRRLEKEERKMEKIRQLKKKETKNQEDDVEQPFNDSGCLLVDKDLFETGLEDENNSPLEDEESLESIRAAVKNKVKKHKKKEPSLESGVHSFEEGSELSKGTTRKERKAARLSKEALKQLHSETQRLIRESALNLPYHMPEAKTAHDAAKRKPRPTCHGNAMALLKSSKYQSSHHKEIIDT
Claspin #24 (aa1-350+aa897-1,339), 3xFlag (Q9HAW4, form named): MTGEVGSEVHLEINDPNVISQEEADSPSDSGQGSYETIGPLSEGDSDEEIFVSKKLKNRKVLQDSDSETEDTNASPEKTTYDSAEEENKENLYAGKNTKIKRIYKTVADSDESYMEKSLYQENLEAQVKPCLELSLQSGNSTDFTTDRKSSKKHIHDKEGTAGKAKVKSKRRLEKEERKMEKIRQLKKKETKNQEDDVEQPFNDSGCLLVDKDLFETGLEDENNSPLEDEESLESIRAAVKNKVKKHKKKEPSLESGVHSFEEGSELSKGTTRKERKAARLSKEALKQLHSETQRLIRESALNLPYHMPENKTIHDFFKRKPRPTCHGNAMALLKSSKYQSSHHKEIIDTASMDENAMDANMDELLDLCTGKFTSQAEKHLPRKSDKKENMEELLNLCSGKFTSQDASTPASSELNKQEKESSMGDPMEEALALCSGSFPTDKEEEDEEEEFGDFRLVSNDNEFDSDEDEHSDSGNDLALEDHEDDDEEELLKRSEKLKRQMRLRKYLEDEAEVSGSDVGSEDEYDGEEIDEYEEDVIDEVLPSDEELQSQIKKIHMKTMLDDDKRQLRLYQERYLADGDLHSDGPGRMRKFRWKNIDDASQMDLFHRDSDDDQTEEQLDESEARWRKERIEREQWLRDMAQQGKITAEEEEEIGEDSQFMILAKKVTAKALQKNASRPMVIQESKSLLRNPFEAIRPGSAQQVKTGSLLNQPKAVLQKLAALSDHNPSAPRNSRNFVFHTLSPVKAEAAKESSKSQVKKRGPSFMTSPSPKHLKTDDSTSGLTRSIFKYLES
UniProt P12004: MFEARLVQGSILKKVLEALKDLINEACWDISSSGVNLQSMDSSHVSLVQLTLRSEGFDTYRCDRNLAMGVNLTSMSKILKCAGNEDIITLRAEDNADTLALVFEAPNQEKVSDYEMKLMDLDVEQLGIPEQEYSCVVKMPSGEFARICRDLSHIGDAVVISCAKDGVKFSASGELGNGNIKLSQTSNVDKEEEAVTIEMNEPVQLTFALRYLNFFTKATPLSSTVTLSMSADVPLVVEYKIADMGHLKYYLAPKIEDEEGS
UniProt Q9UNS1: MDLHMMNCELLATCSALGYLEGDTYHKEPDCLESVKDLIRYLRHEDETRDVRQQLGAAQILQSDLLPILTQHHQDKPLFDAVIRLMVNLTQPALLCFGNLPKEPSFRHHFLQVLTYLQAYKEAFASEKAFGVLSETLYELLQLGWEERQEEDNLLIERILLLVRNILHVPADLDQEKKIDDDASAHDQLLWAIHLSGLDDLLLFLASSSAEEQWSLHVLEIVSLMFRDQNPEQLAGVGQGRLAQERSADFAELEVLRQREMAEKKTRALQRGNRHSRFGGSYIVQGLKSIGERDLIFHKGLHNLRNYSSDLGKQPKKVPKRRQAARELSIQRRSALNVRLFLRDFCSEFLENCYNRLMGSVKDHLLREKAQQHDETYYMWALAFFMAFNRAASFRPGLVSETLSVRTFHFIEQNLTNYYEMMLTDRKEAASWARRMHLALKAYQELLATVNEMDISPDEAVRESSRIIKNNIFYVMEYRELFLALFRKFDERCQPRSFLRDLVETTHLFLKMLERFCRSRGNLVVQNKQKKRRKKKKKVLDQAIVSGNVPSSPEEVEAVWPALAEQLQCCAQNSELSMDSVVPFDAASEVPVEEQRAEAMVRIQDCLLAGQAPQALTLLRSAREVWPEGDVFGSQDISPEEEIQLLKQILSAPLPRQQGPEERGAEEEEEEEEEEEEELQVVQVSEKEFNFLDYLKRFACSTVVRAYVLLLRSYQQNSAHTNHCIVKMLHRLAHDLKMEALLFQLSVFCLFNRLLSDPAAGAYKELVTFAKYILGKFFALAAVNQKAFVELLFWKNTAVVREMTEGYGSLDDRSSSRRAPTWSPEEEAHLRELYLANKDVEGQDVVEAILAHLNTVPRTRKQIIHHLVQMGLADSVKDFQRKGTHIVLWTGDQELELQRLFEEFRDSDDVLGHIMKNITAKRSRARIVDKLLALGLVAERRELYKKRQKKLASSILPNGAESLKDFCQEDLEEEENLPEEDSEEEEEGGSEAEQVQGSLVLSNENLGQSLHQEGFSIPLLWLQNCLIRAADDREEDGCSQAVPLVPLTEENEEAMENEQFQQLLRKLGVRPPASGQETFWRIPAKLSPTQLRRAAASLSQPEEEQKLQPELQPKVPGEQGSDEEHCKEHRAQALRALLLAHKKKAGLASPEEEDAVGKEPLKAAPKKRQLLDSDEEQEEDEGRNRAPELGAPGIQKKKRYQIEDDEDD
UniProt O00311: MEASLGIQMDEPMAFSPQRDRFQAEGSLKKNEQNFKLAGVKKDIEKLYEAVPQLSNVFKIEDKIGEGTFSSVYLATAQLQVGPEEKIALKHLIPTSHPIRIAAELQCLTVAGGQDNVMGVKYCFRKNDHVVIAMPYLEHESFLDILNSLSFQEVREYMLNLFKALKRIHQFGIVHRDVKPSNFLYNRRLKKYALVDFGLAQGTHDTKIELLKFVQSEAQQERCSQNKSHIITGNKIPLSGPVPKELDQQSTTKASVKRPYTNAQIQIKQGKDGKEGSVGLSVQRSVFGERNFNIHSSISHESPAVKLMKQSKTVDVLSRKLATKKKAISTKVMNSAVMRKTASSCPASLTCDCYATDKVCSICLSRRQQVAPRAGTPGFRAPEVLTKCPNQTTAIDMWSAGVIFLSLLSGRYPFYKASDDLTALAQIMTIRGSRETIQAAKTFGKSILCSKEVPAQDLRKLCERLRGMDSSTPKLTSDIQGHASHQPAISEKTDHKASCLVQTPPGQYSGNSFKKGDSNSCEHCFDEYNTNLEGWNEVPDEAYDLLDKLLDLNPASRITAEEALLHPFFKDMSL

In test [1] the target is Claspin #25 (aa1-896), 3xFlag (human) (UniProt Q9HAW4). Nature of the test: co-IP; Flag-tagged #25 expressed in 293T cells alone or with HA-tagged C-terminal polypeptides (#13, #27); M2 Flag beads; blot for associated endogenous PCNA.
The target in test [2] is Claspin, wild type, full length (6His-Claspin-3Flag) (human) (UniProt Q9HAW4). The experiment in a line: co-IP; Claspin or its derivatives, 3xFlag at the C terminus, transiently expressed in 293T cells; lysate in CSK buffer with 0.1% TritonX-100 and Benzonase; anti-Flag M2 affinity beads 60 min at 4 °C; endogenous partners detected by western blotting; also told for Cdc7-depleted cells (Supplementary Fig. 9).

For test [3], the target named is Claspin #2 (aa1-350), 3xFlag (human) (UniProt Q9HAW4). The description is as above.
The target of test [4] is Claspin PIP mutant, full length, 3xFlag (human) (UniProt Q9HAW4). The test is described as above.
In test [5] the target is Claspin #25 (aa1-896), 3xFlag (human) (UniProt Q9HAW4). Nature of the test: co-IP; Flag-tagged N-terminal segment #25 coexpressed in 293T cells with HA-tagged C-terminal polypeptides, pulled down with M2 Flag beads, blot with anti-HA; with or without coexpressed HA-Cdc7 (wild type or kinase dead) and myc-ASK; the text of p-0017 says purified proteins were mixed.
Test [6] has as its target Claspin, wild type, full length (6His-Claspin-3Flag) (human) (UniProt Q9HAW4). The experiment in a line: pull-down; purified Flag-tagged Claspin (wild type or mutant) incubated with PCNA or Cdc7-ASK in 40 mM HEPES-KOH (pH 7.6), 100 mM K-glutamate, 1 mM MgCl2, 1 mM EGTA, 0.01% TritonX-100, 0.1 mM ATP at 4 °C for 1 h; recovered on anti-Flag beads; western blotting; both purified. A general note: A western blot detects proteins with antibodies after separation by electrophoresis.

The target of test [7] is Claspin #26 (aa1-985), 3xFlag (human) (UniProt Q9HAW4). Nature of the test: co-IP; Claspin or its derivatives, 3xFlag at the C terminus, transiently expressed in 293T cells; lysate in CSK buffer with 0.1% TritonX-100 and Benzonase; anti-Flag M2 affinity beads 60 min at 4 °C; endogenous partners detected by western blotting; also told for Cdc7-depleted cells (Supplementary Fig. 9).

The target in test [8] is Claspin #25 (aa1-896), 3xFlag (human) (UniProt Q9HAW4). The description is as above.
Test [9] addresses Claspin #2 (aa1-350), 3xFlag (human) (UniProt Q9HAW4). The experiment in a line: pull-down; purified Flag-tagged Claspin (wild type or mutant) incubated with PCNA or Cdc7-ASK in 40 mM HEPES-KOH (pH 7.6), 100 mM K-glutamate, 1 mM MgCl2, 1 mM EGTA, 0.01% TritonX-100, 0.1 mM ATP at 4 °C for 1 h; recovered on anti-Flag beads; western blotting; both purified.
Test [10] addresses Claspin #2 (aa1-350) PIP mutant, 3xFlag (human) (UniProt Q9HAW4). Nature of the test: condition: PCNA, 1.2 or 3.0 pmol; Claspin polypeptide 1.2 pmol; pull-down; purified Flag-tagged Claspin (wild type or mutant) incubated with PCNA or Cdc7-ASK in 40 mM HEPES-KOH (pH 7.6), 100 mM K-glutamate, 1 mM MgCl2, 1 mM EGTA, 0.01% TritonX-100, 0.1 mM ATP at 4 °C for 1 h; recovered on anti-Flag beads; western blotting; both purified.

Test [11] has as its target Claspin #27 (aa897-1,100), 3xFlag (human) (UniProt Q9HAW4). The experiment in a line: co-IP; Claspin or its derivatives, 3xFlag at the C terminus, transiently expressed in 293T cells; lysate in CSK buffer with 0.1% TritonX-100 and Benzonase; anti-Flag M2 affinity beads 60 min at 4 °C; endogenous partners detected by western blotting; also told for Cdc7-depleted cells (Supplementary Fig. 9).

Test [12] has as its target Claspin #13 (aa897-1,209), 3xFlag (human) (UniProt Q9HAW4). The test is described as above.
Test [13] concerns the target Claspin #18 (aa897-1,339), 3xFlag (human) (UniProt Q9HAW4). The description is as above.
The target of test [14] is Claspin #24 (aa1-350+aa897-1,339), 3xFlag (human) (UniProt Q9HAW4). Described as above.
The target in test [15] is Claspin, wild type, full length (6His-Claspin-3Flag) (human) (UniProt Q9HAW4). The description is as above. The source holds these as a separate data set.
Test [16] concerns the target Claspin PIP mutant, full length, 3xFlag (human) (UniProt Q9HAW4). Described as above. The source holds these as a separate data set.
The target in test [17] is Claspin, wild type, full length (6His-Claspin-3Flag) (human) (UniProt Q9HAW4). Nature of the test: co-IP; purified Claspin (wild type or DE/A) with purified Pol ɛ or Cdc45, coimmunoprecipitation in vitro (Supplementary Fig. 10); conditions not shown; both purified.

Read-outs that look alike come from different tables or passages of the source. No constants are given. Whether binding was seen depends on the method and setting. For some of these results: In cells and extracts the contact can be indirect. Some entries that bind do so weakly or less than the wild type. For some of these results: Sequences can lack the tags named with a protein.

For “PCNA (endogenous) (from UniProt P12004 1-261)”, the binding entry in test [1], in test [2] and in test [3] was “binds” each time.
For the molecule Tim (from UniProt Q9UNS1 1-1208), the binding result in test [2], in [3] and in test [4] was “binds” in each case.
Turning to “Claspin #13 (aa897-1,209), HA-tagged (from UniProt Q9HAW4 897-1209) (domain or fragment)”, in [5], the binding result is listed as “binds”.
Take “Claspin #27 (aa897-1,100), HA-tagged (from UniProt Q9HAW4 897-1100) (domain or fragment)”: the binding entry in test [5] was “binds”.
With “Cdc7-ASK complex, purified (from UniProt O00311 1-574; Q9UBU7 1-674)”, the binding result in test [6] is reported as “binds”.
Consider “ATR (from UniProt Q13535 1-2644) (enzyme)”, for which the binding result in test [7] is “binds weakly”; in [8] it was “binds weakly”; in test [4] it was “binds”.
Turning to “PCNA (BioAcademia) (from UniProt P12004 1-261)”, the binding result is listed as “binds” in test [6], “binds” in [9] and “no binding” in [10].
For the molecule “Cdc7 kinase (from UniProt O00311 1-574) (enzyme)”, the binding entry in test [2] was “binds”; in [11], “binds”; in test [12], “binds”; in test [4] it was “binds”; in [13], “binds weakly”; in [14], “binds weakly”.
Regarding “Claspin #18 (aa897-1,339), HA-tagged (from UniProt Q9HAW4 897-1339) (domain or fragment)”, in [5], the binding result was “binds”.

B1: Cdc45 (endogenous) (protein, UniProt O75419 1-566)
chain: MFVSDFRKEFYEVVQSQRVLLFVASDVDALCACKILQALFQCDHVQYTLVPVSGWQELETAFLEHKEQFHYFILINCGANVDLLDILQPDEDTIFFVCDTHRPVNVVNVYNDTQIKLLIKQDDDLEVPAYEDIFRDEEEDEEHSGNDSDGSEPSEKRTRLEEEIVEQTMRRRQRREWEARRRDILFDYEQYEYHGTSSAMVMFELAWMLSKDLNDMLWWAIVGLTDQWVQDKITQMKYVTDVGVLQRHVSRHNHRNEDEENTLSVDCTRISFEYDLRLVLYQHWSLHDSLCNTSYTAARFKLWSVHGQKRLQEFLADMGLPLKQVKQKFQAMDISLKENLREMIEESANKFGMKDMRVQTFSIHFGFKHKFLASDVVFATMSLMESPEKDGSGTDHFIQALDSLSRSNLDKLYHGLELAKKQLRATQQTIASCLCTNLVISQGPFLYCSLMEGTPDVMLFSRPASLSLLSKHLLKSFVCSTKNRRCKLLPLVMAAPLSMEHGTVTVVGIPPETDSSDRKNFFGRAFEKAAESTSSRMLHNHFDLSVIELKAEDRSKFLDALISLLS
With B1, the binding entry in test [15] and in [16] was “binds” each time.

B2: 6His-Cdc45-HA (protein, UniProt O75419 1-566)
chain: B1 chain
For the molecule B2, the binding result in [17] is “binds”.
